In PubChem BioAssay AID1346428 (National Center for Advancing Translational Sciences (NCATS), 2018) one finds activation data, which are given here for 53 compounds.

SMILES strings stand for the structures. The campaign covered roughly 48,000 compounds. About 1,200 (2.5%) were called active. Not shown: some 2% with an inconclusive outcome.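 The calls were made as follows: active = activation of at least 60% and not above a set upper limit (about 1 call in 100 departs from these limits); inconclusive = activation of 40% to 60%, or above that upper limit; inactive = activation under 40%.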 Some of the results follow.

This assay concerns the target Probable G-protein coupled receptor 32 (Homo sapiens) (UniProt O75388). In words: qHTS for Agonists of Human Resolvin D1 Receptor DRV1. Also: 0% is about no effect. The note with it: CHO-K1 GPR32 beta-arrestin PathHunter luminescence, 90 min; at 76.9 µM; hits give high values; zero percent set by DMSO-only wells. Summed up: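 Readings come from a cell-based beta-arrestin complementation format: CHO-K1 GPR32 stable cells (2,500/well) treated 90 min with compounds, then beta-Gal substrate added for 1 h before chemiluminescence imaging.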
Chain of UniProt O75388 (O75388 whole entry, looked up): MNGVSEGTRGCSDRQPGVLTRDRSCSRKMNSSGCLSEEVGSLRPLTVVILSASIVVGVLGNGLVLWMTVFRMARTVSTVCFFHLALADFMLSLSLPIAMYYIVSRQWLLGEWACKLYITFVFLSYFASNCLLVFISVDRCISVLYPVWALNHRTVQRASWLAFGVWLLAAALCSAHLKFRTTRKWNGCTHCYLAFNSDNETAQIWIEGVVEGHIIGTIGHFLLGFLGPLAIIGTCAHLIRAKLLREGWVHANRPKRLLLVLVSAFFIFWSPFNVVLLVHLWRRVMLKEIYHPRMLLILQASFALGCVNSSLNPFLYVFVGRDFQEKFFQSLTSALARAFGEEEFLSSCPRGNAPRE
Regarding `O=C(NCc1nc2ccccc2[nH]1)c1c(F)cccc1F`, the activation was inactive: -6.78%.

Consider `Cc1cccc(-n2c(C)nc3cc(C(=O)NCCC4=CCCCC4)ccc32)c1`, for which the activation was inactive: -22.6%.

Turning to `COc1ccc(NC(=O)CCNS(=O)(=O)c2cccc3nsnc23)cc1Cl`, the activation is inactive: -15.1%.

As to `CCOc1ccccc1CN1CCc2nc(Nc3ccc4c(c3)OCCO4)ncc2C1`, the activation is inactive: -13.3%.

On to `COc1ccc(CCNC(=O)c2cc3sccc3n2Cc2ccc(Cl)cc2)cc1OC`, for which the activation is inactive: -20.5%.

Turning to `CCCS(=O)(=O)N1CC(=O)N(c2ccc(C)cc2)C(C)(C(=O)NC2CCCCCC2)C1` (stereo not drawn), the activation was inactive: 4.84%.

As for `O=C(NCCc1ccccc1Cl)c1ccc2c(=O)n(-c3ccccc3)c(=O)[nH]c2c1`, the activation was inactive: 40.4%.

As to `O=C(CSc1nc(Nc2ccc(F)cc2)c2ccccc2n1)c1ccc(F)cc1`, the activation was inactive: -10.7%.

Regarding `CCN(C(=O)Cn1cnc2onc(-c3ccc(F)cc3)c2c1=O)c1ccc(OC)cc1`, the activation was inactive: 7.62%.

For the compound `Cc1ccc(CNc2ncnc3onc(-c4ccc(F)cc4)c23)cc1`, the activation is inactive: 14.6%.

On to `Cc1cc(C)c2nc(NC(=O)c3ccc(S(=O)(=O)N4CCc5ccccc54)cc3)sc2c1`, for which the activation was inactive: -8.07%.

For the compound `Cc1oc2ncn(CC(C)C)c(=O)c2c1C(=O)NC(C)c1ccccc1` (stereo not drawn), the activation is inactive: -8.14%.

Take `CCOc1ccc(NC(=O)Cn2c(=O)c(CNc3ccc(CC)cc3)cc3cc4c(cc32)OCO4)cc1`: the activation is inactive: -29.3%.

For `COc1ccc(-c2nnc(SCC(=O)NC3CCCCC3)nc2-c2ccc(OC)cc2)cc1`, the activation was inactive: -26%.

As for `COCCn1c(C)cc(O)c(C(c2ccccc2)N2CCN(c3ccccc3)CC2)c1=O` (stereo not drawn), the activation was inactive: -16.6%.

As for `Cc1cccc(-n2ccnc2SCC(=O)Nc2cccc3ccccc23)c1C`, the activation is inactive: 3.84%.

For `CCOc1ccc(Nc2nnc(-n3nc(C)cc3C)c3ccccc23)cc1`, the activation is inactive: -3%.

For the compound `COc1ccc(C(=O)Nc2ccc3c(c2)CCCN3C(=O)c2cccs2)c(OC)c1`, the activation was inactive: -8.58%.

On to `COc1cc(OC)c(NC(=O)N2CCCn3nc(C)cc32)cc1Cl`, for which the activation is inactive: -4.06%.

As for `O=C(Cn1c(=O)n(Cc2ccc3c(c2)OCO3)c(=O)c2oc3ccccc3c21)Nc1ccccc1F`, the activation is inactive: -12.9%.

Turning to `COc1ccc(N2CC(C(=O)NCc3nnnn3-c3ccc(C)c(C)c3)CC2=O)cc1` (stereo not drawn), the activation is inactive: -7.67%.

Turning to `Cc1c(F)c(N2CCNC(C)C2)cc2c1c(=O)c(C(=O)O)cn2C1CC1` (stereo not drawn), the activation was inactive: -1.78%.

Regarding `COc1ccc(CCNC(=O)C(=O)NCC(c2ccco2)S(=O)(=O)c2ccccc2)cc1` (stereo not drawn), the activation was inactive: -4.41%.

In the case of `COc1ccccc1NC(=O)Cn1c(=O)c(CNc2ccc(C)cc2)cc2cc3c(cc21)OCCO3`, the activation was inactive: -19.1%.

As for `Cc1cccc(N2C(=O)CSC23C(=O)N(CC(=O)NCc2ccccc2Cl)c2ccccc23)c1` (stereo not drawn), the activation was inactive: -4.59%.

For `COc1ccc(-c2nnc3n2N(C(C)=O)C(c2ccc(Cl)c(Cl)c2)=C(C(C)=O)S3)cc1`, the activation is inactive: -9.9%.

With `O=C(Cn1c(SCCOc2ccc(Cl)cc2)nc2ccccc21)N1CCCCC1`, the activation was inactive: -24.1%.

Turning to `COc1ccc2cc3cc(C(=O)N4CCN(c5ccccc5F)CC4)oc3nc2c1`, the activation was inactive: 0.349%.

On to `O=c1[nH]c(=O)n(C2CCCCC2)c(O)c1C1=Nc2ccccc2SC(c2ccc(Cl)cc2)C1` (stereo not drawn), for which the activation was inactive: -3.16%.

In the case of `COc1cccc(C2=CC(c3cc(Br)ccc3F)n3nnnc3N2)c1` (stereo not drawn), the activation is inactive: -46.2%.

Turning to `CCCOc1ccc(C2CC(=O)Nc3c2c(C)nn3-c2nncc(-c3cccc(OC)c3)n2)cc1OC` (stereo not drawn), the activation is inactive: 16.4%.

Regarding `Cc1nc2c(c(C)c1CCC(=O)NCc1ccc(Cl)cc1)c(=O)n(C)c(=O)n2C`, the activation was inactive: -2.05%.

For `Cc1cccc(NC(=O)c2ccc3c(c2)CCN3S(=O)(=O)c2ccccc2)c1C`, the activation was inactive: -8.78%.

With `Cc1ccc(NC(=O)Nc2sc3nc4n(c(=O)c3c2C)CCC(C)CC4)c(Cl)c1` (stereo not drawn), the activation was inactive: 0.232%.

Regarding `COc1cccc(OC)c1C(=O)Nc1nc2c(s1)CCc1ccccc1-2`, the activation was inactive: 1.67%.

Consider `CC(CNC(=O)CN1C(=O)c2cccnc2Oc2ccc(Cl)cc21)c1ccccc1` (stereo not drawn), for which the activation was inactive: -11.4%.

In the case of `COc1ccc(-c2noc(-c3ccc(N4CCN(c5ccccc5)CC4)c([N+](=O)[O-])c3)n2)cc1`, the activation was inactive: -33.9%.

On to `COC(=O)c1ccc(NC(=O)N2CCN(Cc3cc(=O)n4nc(-c5ccc(C)cc5)sc4n3)CC2)cc1`, for which the activation is inactive: -11.8%.

Regarding `CCc1cc(C(=O)NCc2ccccc2)no1`, the activation is inactive: 6.81%.

In the case of `COc1cc(NC(=O)CSc2nc(-c3ccco3)cc(C(F)(F)F)n2)cc(OC)c1OC`, the activation is inactive: 6.6%.

Take `Cc1nnc(NC(=O)c2nc(SCc3ccccc3F)ncc2Cl)s1`: the activation is inactive: 21.2%.

With `COc1ccccc1NC(=O)CN1C(=O)C2(SCC(=O)N2c2ccc(F)c(F)c2)c2ccccc21` (stereo not drawn), the activation is inactive: -9.95%.

`O=C(NCc1ccccc1)C(=O)Nc1ccc2nc3n(c(=O)c2c1)CCCCC3`: the activation is inactive: -4.8%.

Regarding `Cc1c(C(=O)Nc2cccc(Cl)c2)oc2ccc(S(=O)(=O)N3CCCCCC3)cc12`, the activation was inactive: -7.36%.

Regarding `Cc1cc(C)nc(-n2nc(C)c3c2N(C)C(=O)CC3c2ccc(Cl)cc2)n1` (stereo not drawn), the activation is inactive: -7.74%.

For `Cc1ccc(CN2COc3ccc4c(-c5ccccc5)cc(=O)oc4c3C2)cc1`, the activation is inactive: -2.53%.

Take `Cc1cc(-c2ccc(S(=O)(=O)Nc3ccccc3F)s2)on1`: the activation is inactive: -9.03%.

For `CC(NC(=O)Cc1ccc(NC(=O)N2CCSc3ncccc32)cc1)c1ccccc1` (stereo not drawn), the activation was inactive: 10.5%.

As for `CCCOc1ccc(C(=O)Nc2ccc(NC(=O)c3ccccc3)c(Br)c2)cc1`, the activation was inactive: -14.3%.

In the case of `COc1ccc(C(=O)Nc2cc(C)c(O)c(-c3nc4ccccc4s3)c2)cc1OC`, the activation was inactive: -0.174%.

As for `Cc1ccc(C)c(NC(=O)Cn2c(=O)n(CC3CCCO3)c(=O)c3ccccc32)c1` (stereo not drawn), the activation was inactive: -5.84%.

Consider `CCN1CCN(c2ncnc3c2cnn3-c2ccc(C)c(C)c2)CC1`, for which the activation is inactive: -6.87%.

On to `CC(=O)Nc1ccc(NC(=O)CSc2nc3ccccc3nc2N2CCCCC2)cc1`, for which the activation was inactive: -5.5%.
